Assay results from PubChem BioAssay AID652104 (National Center for Advancing Translational Sciences (NCATS), 2013).
The campaign covered roughly 410,000 compounds. About 7,200 (1.8%) were called active. This list was built around the results that the source calls inconclusive (neither active nor inactive); the mix of calls is not that of the screen. Calls come from the whole dose curve; as a rule, active = well fitted activation curve with a large enough effect; inconclusive = small, poorly fitted or top-dose-only effect, or another doubt; inactive = no such curve, though single readings can be large or run the other way. Potencies of inconclusive entries are left out as doubtful fits.

Assay: qHTS of TDP-43 Inhibitors; note: nearly all actives have a fitted effect of over 50% in size; for growth rescue (activation): % of control where 0% means no effect
Conditions: TDP-43 expressing yeast growth rescue, BacTiter-Glo, 24 h; growth rescue (activation): at 46.1 µM (top of the series) unless noted
Method in brief: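 Readout is BacTiter-Glo luminescence of cell growth, so inhibitors register as activators. TDP-43-expressing yeast at OD600=0.02 in galactose medium, after raffinose pregrowth to mid-log, were incubated with compound for 24 hr at 30 deg C.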
Potency is the fitted concentration of half-maximal effect; tags give direction and shape of the fitted curve.

Row | Structure (SMILES) | Potency | growth rescue (activation)
1 | Cc1cc(C)cc(NC(=O)Nc2ccc(Cl)cn2)c1 | inconclusive [activator, partial curve] | –
2 | CC(=O)Nc1ccc(S[C@@H](CCN2CC[C@H](C(C)(C)C)CCC2=O)c2ccccc2)cc1 | inactive | –
3 | Cc1ccc(CN(Cc2ccccn2)C(=O)Nc2ccc(C)c(C)c2)cc1 | inconclusive [activator, partial curve] | –
4 | Cc1cc(C(=O)CN2CCCCC2)c(C)n1-c1ccc(F)cc1 | inactive | –
5 | CCOC(=O)c1ccccc1NC(=O)Cn1c(=O)n(CCC(=O)N2CCc3ccccc3C2)c(=O)c2ccccc21 | active: 35.5 µM | –
6 | CCOC(=O)/C(=N\Nc1ncnc2ccccc12)c1ccc(C)cc1 | inconclusive [activator, single point] | –
7 | COc1cc2c(cc1OC)[C@H](C)N(C(=S)Nc1ccc(F)cc1)CC2 | inconclusive [activator, single point] | –
8 | COc1cccc2cc(C(C)=O)oc12 | inconclusive [activator, partial curve, poor fit] | –
9 | Cn1nc(C(=O)NCCOc2ccccc2)c2ccccc2c1=O | inconclusive [activator, partial curve] | –
10 | CCN1CCN(Cc2ccc(NC(=O)c3ccc(C)c(NC(=O)c4csc(-c5ccncc5)n4)c3)cc2C(F)(F)F)CC1 | inactive | –
11 | CCCOc1ccc(C(=O)Nc2ccc3oc(-c4ccc5ccccc5c4)nc3c2)cc1 | inconclusive [activator, full curve] | –
12 | Cc1ccc(CC2CC(=O)N(CCc3ccc4c(c3)OCO4)C2=O)cc1 (stereo not drawn) | inactive | –
13 | COc1cc(C(=S)N2CCCC2)ccc1OCc1ccc(C)cc1 | inconclusive [activator, single point] | –
14 | O=C(Cc1ccccc1)N(Cc1cccnc1)c1nc2ccc(Cl)cc2s1 | inconclusive [activator, partial curve, poor fit] | –
15 | CSc1ncccc1C(=O)OCC(=O)c1cccc(Br)c1 | inconclusive [activator, full curve, poor fit] | –
16 | O=C(Nc1nc(-c2cccs2)c(-c2ccccc2)s1)c1ccco1 | active: 12.6 µM | –
17 | CC(C)c1ccccc1NC(=S)NC(=O)C1CCCCC1 | inconclusive [activator, partial curve] | –
18 | COCc1c(C(=O)N2CCN(c3ccccc3C)CC2)oc2ccccc12 | inconclusive [activator, single point] | –
19 | Cc1ccc2nc(NC(=O)CSc3nncc(=O)n3N)sc2c1 | inactive | –
20 | Cc1ccccc1CNC(=O)COc1ccccc1 | inconclusive [activator, partial curve] | –
21 | CCn1c(SCc2nc(-c3ccccc3)no2)nc2ccccc21 | active: 15.8 µM | –
22 | O=[N+]([O-])c1ccc(NCCCc2ccccc2)cc1 | inconclusive [activator, partial curve] | –
23 | Cc1ccc(F)cc1NC(=O)c1ccc(NS(=O)(=O)c2ccc(Br)s2)cc1 | inconclusive [activator, partial curve] | –

Row | Structure (SMILES) | Potency | growth rescue (activation)
24 | Cc1oc(-c2ccc(F)cc2)cc1-c1nn2c(-c3ccoc3C)nnc2s1 | inactive | –
25 | COc1ccc(-c2sccc2C(C)C(=O)O)cc1 (stereo not drawn) | inconclusive [activator, single point] | –
26 | CC(C#N)(Nc1ccc(Cl)cc1)c1cccnc1 (stereo not drawn) | inconclusive [activator, single point] | –
27 | CNC(=O)c1cc(-c2ccc(Cl)cc2)n(-c2ccccc2)n1 | inconclusive [activator, single point] | –
28 | CN(Cc1ccccc1)C(=O)c1[nH]cnc1C(=O)Nc1ccc(Br)cc1F | inconclusive [activator, partial curve, poor fit] | –
29 | O=C(CCCN1C(=O)c2ccccc2C1=O)N1CCC(c2ccccc2)C1 (stereo not drawn) | inconclusive [activator, partial curve] | –
30 | COc1cc(-c2nc3cc(C)ccn3c2NC2CCCCC2)ccc1-c1ccc(C(C)=O)cc1 | inconclusive [activator, single point] | –
31 | CSc1nnnc2ccccc12 | inconclusive [activator, partial curve, poor fit] | –
32 | CC(C)(C)c1nc(SCC(=O)c2ccccc2)c2ccccc2n1 | inconclusive [activator, single point] | –
33 | CC1CCN(c2nc3ccc(C(=O)O)cc3s2)CC1 | active: 3.98 µM | –
34 | Cc1ccc(S[C@@H](CCN2CC[C@H](C)CCC2=O)c2ccccc2)cc1 | inconclusive [activator, single point] | –
35 | CCCCN1C(=O)CN(C2CCCCCC2)C(=O)C1c1ccc(OC(C)C)c(OC)c1 (stereo not drawn) | inactive | –
36 | Cc1ccc(C)c(OCCC(=O)NCCc2ccc(F)cc2)c1 | inconclusive [activator, single point] | –
37 | CCOC(=O)c1ccc(N/C(=N\S(=O)(=O)c2ccccc2C)c2ccccc2)cc1 | active: 25.1 µM | –
38 | COc1ccc2c(c1)CCC/C2=N\OC(=O)c1ccccc1F | active: 11.2 µM | –
39 | Cc1ccc(C)c(S(=O)(=O)N2CCN(C(=O)c3cccn3C)CC2)c1 | inconclusive [activator, single point] | –
40 | CCOc1ccc2nc(NC(=O)C3=NN(c4ccccc4)C(=O)CC3)sc2c1 | inactive | –
41 | CCC(=O)Nc1cccc(C2=NN(c3ccccc3)C(c3ccc(OC)cc3)C2)c1 (stereo not drawn) | inconclusive [activator, single point] | –
42 | CC(C)C(c1nnnn1CCc1ccccc1)N1CCN(C(=O)c2ccco2)CC1 (stereo not drawn) | inconclusive [activator, full curve] | –
43 | Cc1cc(C)c(OCC(=O)Nc2nc(-c3ccccn3)cs2)c(C)c1 | inactive | –
44 | CSc1ccc(S(=O)(=O)NCc2ccccc2C)cc1 | active: 14.1 µM | –
45 | CC(C)c1ccc(NC(c2nnc(-c3ccccc3)o2)c2ccc(F)cc2Cl)cc1 (stereo not drawn) | inactive | –
46 | O=C(Nc1cccc(-c2nc3ncccc3o2)c1)c1cc2ccccc2o1 | inconclusive [activator, partial curve] | –

Row | Structure (SMILES) | Potency | growth rescue (activation)
47 | COC(=O)c1cn(NC(=O)c2cnccn2)c(=O)c2ccccc12 | inconclusive [activator, partial curve] | –
48 | Cc1cc(C)cc(C(=O)Nc2c(C(=O)Nc3ccccc3F)oc3ccccc23)c1 | inactive | –
49 | CN(Cc1ccccc1)S(=O)(=O)c1ccc(Cl)c(C(=O)NCc2cccnc2)c1 | inconclusive [activator, partial curve] | –
50 | O=C(CSCc1ccc([N+](=O)[O-])cc1)NC1CC2CCC1C2 (stereo not drawn) | inconclusive [activator, single point] | –
51 | COC(=O)c1c(-c2ccccc2OC)sc2cc3c(cc12)OCO3 | inconclusive [activator, single point] | –
52 | Cc1ccccc1CC1(CO)CCCN(C(=O)c2ccc(F)cc2)C1 (stereo not drawn) | inconclusive [activator, single point] | –
53 | CCCCCn1c(=O)c2ccccc2n2c(CCl)nnc12 | active: 15.8 µM | –
54 | CCN1C(C(=O)c2ccccc2)=C(OC(=O)COc2ccccc2)c2ccccc2S1(=O)=O | – | inconclusive: -85.1% [activator]
55 | COc1ccccc1-c1cc(C(F)(F)F)nc(NCc2ccco2)n1 | inconclusive [activator, single point] | –
56 | O=C(N/N=C/c1cc(Br)ccc1O)c1ccccc1Cl | active: 14.1 µM | –
57 | COc1ccc(C(=O)C2CCN(C(=O)Nc3ccc(C)cc3)CC2)cc1 | inconclusive [activator, partial curve] | –
58 | O=C(Nc1cc([N+](=O)[O-])ccc1Cl)c1cccnc1 | inconclusive [activator, single point] | –
59 | C/C=C/COC(=O)c1[nH]c2c(c1C)C(=O)CC(c1ccc(N(C)C)cc1)C2 (stereo not drawn) | inconclusive [activator, partial curve] | –
60 | COc1cccc(N2CCN(c3c(C#N)c(C(F)(F)F)nn3C)CC2)c1 | inconclusive [activator, single point] | –
61 | CCOC(=O)c1ccccc1Nc1cc(C)nc2nc(-c3ccco3)nn12 | inconclusive [activator, partial curve, poor fit] | –
62 | COc1cccc2sc(N3CCN(C(=O)CS(=O)(=O)c4ccc(Cl)cc4)CC3)nc12 | inconclusive [activator, partial curve] | –
63 | O=C1C2CC=CCC2C(=O)N1CC(=O)N(Cc1ccccc1)C1CCS(=O)(=O)C1 (stereo not drawn) | inconclusive [activator, partial curve] | –
64 | Cc1ccc(NC(=O)CN(C)C(=O)COC(=O)c2oc3ccccc3c2C)cc1 | inconclusive [activator, partial curve] | –
65 | COc1ccc(-n2c(SCC(=O)Nc3nnc(C)s3)nc3c([nH]c4ccccc43)c2=O)cc1 | inconclusive [activator, partial curve] | –
66 | Cc1cccc(CS(=O)(=O)c2ncc(Cl)c(C(=O)Nc3nc4ccc(F)cc4s3)n2)c1 | inconclusive [activator, full curve, poor fit] | –
67 | O=c1c2[nH]c3ccc(Br)cc3c2ncn1CCCn1ccnc1 | inconclusive [activator, single point] | –
68 | CCOC(=O)c1c(-c2ccccc2)oc2ccc(OC(C)=O)cc12 | inconclusive [activator, single point] | –
